According to the supplement of paper PMC6135742:
Where a name gives a salt, the structure may show the parent alone. ± gives the standard deviation of the averaged measurements. Over roughly 2,600 compounds, “total cell number (DAPI+ nuclei) relative to DMSO vehicle control” has its median near -1.4; the lowest 2% begin near -23. This is one part of the list.

The molecules below were run on jimpy (Plp1 jimpy) mouse iPSC-derived oligodendrocyte progenitor cells (assay: total cell number (DAPI+ nuclei) relative to DMSO vehicle control (SDs above negative control mean); higher = more surviving cells). Conditions: 10 µM; 3 days.
Protocol: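 Primary phenotypic screen of >3,000 bioactive compounds (Selleck L1700 and Sigma LO1280 libraries) at a single dose of 10 µM. Compounds were added to jimpy (Plp1 mutant) mouse iPSC-derived OPCs at the start of thyroid hormone-induced oligodendrocyte differentiation, one well per compound in 384-well plates. After 3 days cells were stained for MBP, Sox10 and DAPI and imaged with an Operetta system. MBP+ oligodendrocyte number and total cell number were expressed as the number of SDs above the mean of the DMSO negative control on the same plate (n=16 control wells per plate). Hits were defined as >=4 SD for oligodendrocytes and >=2 SD for total cells.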

| Compound | total cell number |
| --- | --- |
| CC(=O)[C@H]1CC[C@H]2[C@@H]3CC=C4C[C@@H](OS(=O)(=O)O)CC[C@]4(C)[C@H]3CC[C@]12C [Pregnenolone sulfate sodium] | 0.54 |
| Clc1ccc(COC(Cn2ccnc2)c2ccc(Cl)cc2Cl)c(Cl)c1 (stereo not given) [Miconazole] | -4.21 |
| Clc1ccc(COC(Cn2ccnc2)c2ccc(Cl)cc2Cl)c(Cl)c1 (stereo not given) [Miconazole Nitrate] | -4.97 |
| Cc1cc(=O)n(-c2ccccc2)n1C [Antipyrine] | -1.95 |
| NCC=CC(=O)O (stereo in doubt) [cis-4-Aminocrotonic acid] | -1.37 |
| CO[C@H]1O[C@@H]2O[C@@]3(C)CC[C@H]4[C@H](C)CC[C@@H]([C@H]1C)[C@@]24OO3 [Artemether] | -1.54 ± 0.17 |
| CC1(C2CCCC2)Cc2cc(OCC(=O)O)c(Cl)c(Cl)c2C1=O (stereo not given) | -1.28 |
| O=c1c2ccccc2oc2ccccc12 [Xanthone] | -0.222 |
| NC12CC3CC(CC(C3)C1)C2 [Amantadine hydrochloride] | 0.385 |
| NC12CC3CC(CC(C3)C1)C2 [Amantadine HCl] | 0.159 |
| N#C/C(=C\c1ccc(O)c(O)c1)C(=O)c1ccc(O)c(O)c1 [Tyrphostin AG 538] | -0.923 |
| CC1CCc2c(N3CCC(O)CC3)c(F)cc3c(=O)c(C(=O)O)cn1c23 (stereo not given) [Nadifloxacin] | -0.436 |
| Brc1ccc([C@H]2CN3CCSC3=N2)cc1 [S(-)-p-Bromotetramisole oxalate] | -0.289 |
| C=CC[C@H](N)C(=O)O [L-allylglycine] | -2.84 |
| O=C(O)c1ccccc1Nc1ccccc1 [N-Phenylanthranilic acid] | -1.13 |
| Cc1c(Cc2ccc3ccccc3n2)c2cc(F)ccc2n1CC(=O)O | -0.876 |
| CN1CCN(C2=Nc3cc(Cl)ccc3Nc3ccccc32)CC1 [Clozapine] | -4.737 ± 0.044 |
| CO[C@@H](C(=O)N1Cc2[nH]nc(NC(=O)c3ccc(N4CCN(C)CC4)cc3)c2C1)c1ccccc1 | -24.2 |
| O=c1ccc2ccccc2o1 [Coumarin] | -1.51 |
| CN(C)CCCN1c2ccccc2Sc2ccc(Cl)cc21 [Chlorpromazine hydrochloride] | -9.15 |
| CN(C)CCCN1c2ccccc2Sc2ccc(Cl)cc21 [Chlorpromazine HCl] | -10.9 |
| Nc1ccc(C(=O)Nc2cccc(-c3nc(N4CCOCC4)c4oc5ncccc5c4n3)c2)cn1 | -18.4 |
| O=C1NC(=O)/C(=C/c2ccc3c(c2)OC(F)(F)O3)S1 | 1.89 |
| CCCCOc1cc(CC2CNC(=O)N2)ccc1OC (stereo not given) | -2.87 |
| CC(C)Cn1c(=O)n(C)c(=O)c2[nH]cnc21 [3-Isobutyl-1-methylxanthine] | 0.419 |
